# Source: PubChem BioAssay (Tox21)
# Several values for one entry are separate records, joined by “and”; a condition that tells them apart may be missing. Equal entries are not always repeated. The inconclusive results got no clear call from the source; some entries with a clear call stand among them for comparison. For some assays here: Potencies beside an inconclusive call are fits to weak or partial responses and may not hold up. Activity calls are given as the source filed them. Unless noted, calls come from the whole dose curve.
# Tests used:
# [1] = target: Progesterone receptor (Homo sapiens) (UniProt P06401); experiment: qHTS assay to identify small molecule agonists of the progesterone receptor (PR) signaling pathway (AID 1346784); details: PR-UAS-bla HEK293T, beta-lactamase FRET ratio, 16 h; activation: at 92.4 µM (top of the series) unless noted; note: nearly all actives have a fitted effect of over 30% in size; note: potency is the fitted concentration of half-maximal effect; for activation: % is set by controls: 0 for no effect and ±100 for the full control effect
# Sequence of UniProt P06401 (P06401 whole entry, looked up): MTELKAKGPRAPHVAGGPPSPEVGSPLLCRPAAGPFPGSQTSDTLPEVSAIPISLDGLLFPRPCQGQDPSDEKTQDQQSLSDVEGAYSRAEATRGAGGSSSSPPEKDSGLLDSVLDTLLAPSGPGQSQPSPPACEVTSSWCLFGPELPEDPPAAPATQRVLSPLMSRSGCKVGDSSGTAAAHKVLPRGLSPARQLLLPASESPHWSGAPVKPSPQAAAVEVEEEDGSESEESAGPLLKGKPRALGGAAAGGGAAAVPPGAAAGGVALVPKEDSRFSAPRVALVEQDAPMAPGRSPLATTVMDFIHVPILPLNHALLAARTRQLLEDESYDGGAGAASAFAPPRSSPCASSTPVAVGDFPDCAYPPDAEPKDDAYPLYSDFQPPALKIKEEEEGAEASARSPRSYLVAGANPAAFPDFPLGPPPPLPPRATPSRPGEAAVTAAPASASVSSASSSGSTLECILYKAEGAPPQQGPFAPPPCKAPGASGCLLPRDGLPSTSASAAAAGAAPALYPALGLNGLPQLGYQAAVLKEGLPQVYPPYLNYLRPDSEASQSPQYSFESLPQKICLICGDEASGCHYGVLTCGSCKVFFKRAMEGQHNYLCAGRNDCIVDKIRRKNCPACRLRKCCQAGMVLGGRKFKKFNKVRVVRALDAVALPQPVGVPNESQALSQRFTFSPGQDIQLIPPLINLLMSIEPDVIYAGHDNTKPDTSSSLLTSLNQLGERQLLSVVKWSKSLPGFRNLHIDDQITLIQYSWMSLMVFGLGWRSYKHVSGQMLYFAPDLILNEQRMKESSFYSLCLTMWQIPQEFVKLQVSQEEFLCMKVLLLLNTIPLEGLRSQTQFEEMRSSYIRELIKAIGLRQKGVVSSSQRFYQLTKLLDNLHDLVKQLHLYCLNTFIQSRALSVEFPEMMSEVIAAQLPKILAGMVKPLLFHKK
# In short: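 HEK 293T PR-UAS-bla reporter cells, 2% charcoal-stripped FBS; 6 hr settle at 37C/5% CO2, compound (DMSO) 16 hr, LiveBLAzer B/G FRET substrate 2 hr RT, fluorescence intensity read.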
# [2] = target: Progesterone receptor (Homo sapiens) (UniProt P06401); experiment: qHTS assay to identify small molecule antagonists of the progesterone receptor (PR) signaling pathway (AID 1346795; active = well fitted inhibition curve with a large enough effect in the signal ratio in the repeat runs, not every such curve was filed as active; inconclusive = weak or mixed curves; the % refers to the signal ratio; note: potency is the fitted concentration of half-maximal effect; for activity change, negative = inhibition: % is set by controls: 0 for no effect and ±100 for the full control effect); details: PR-UAS-bla HEK293T, beta-lactamase FRET ratio, 16 h
# In short: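 Beta-lactamase reporter, HEK293T PR-UAS-bla line; 2% charcoal-stripped FBS; 6 hr pre-incubation, 37C/5% CO2. Compound + R5020 1 nM final, 16 hr. LiveBLAzer B/G FRET substrate, 2 hr RT; fluorescence intensity read.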
# [3] = qHTS assay to identify small molecule agonists of the progesterone receptor (PR) signaling pathway - cell viability counter screen (AID 1346799); details: PR-UAS-bla HEK293T viability, CellTiter-Glo luminescence, 16 h; series mostly up to 92.4 µM; note: nearly all actives have a fitted effect of over 45% in size; note: potency is the fitted concentration of half-maximal effect
# In short: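 HEK293T PR-UAS-bla, 3,000 cells/well, 2% charcoal-stripped FBS; 6 h settle, compound 16 h at 37C/5% CO2; LiveBLAzer 2 h RT, then CellTiter-Glo 30 min RT, luminescence read.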
# [4] = qHTS assay to identify small molecule antagonists of the TGF-beta/Smad signaling pathway (AID 1346924; active = well fitted inhibition curve with a large enough effect in the signal ratio in the repeat runs, not every such curve was filed as active; inconclusive = weak or mixed curves; the % refers to the signal ratio; note: potency is the fitted concentration of half-maximal effect); details: SBE-bla HEK293T, TGF-beta/Smad reporter, beta-lactamase ratio; activity, negative = inhibition: at 76.8 µM (top of the series) unless noted
# In short: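 SBE-bla HEK 293T cells were plated overnight, then received compound in DMSO plus TGF-beta1 (added as a 0.25 ng/mL solution) and were incubated 5 h at 37 C. Beta-lactamase reporter activity was read after 2 h at room temperature with LiveBLAzer B/G FRET substrate (ex 405, em 460/530 nm).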
# [5] = qHTS assay to identify small molecule antagonists of the progesterone receptor (PR) signaling pathway - cell viability counter screen (AID 1346798; active = well fitted curve in the direction sought with a large enough effect in the repeat runs; inconclusive = weak or mixed curves; inactive = no such curve, though single readings can be large; an effect the other way counts as inactive or inconclusive; note: potency is the fitted concentration of half-maximal effect; nearly all actives have a fitted effect of over 50% in size); details: PR-UAS-bla HEK293T viability, CellTiter-Glo luminescence, 16 h; series mostly up to 92.4 µM
# In short: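 Luminescence readout (CellTiter-Glo, 30 min, RT) of viability in PR-UAS-bla HEK293T cells exposed to compound and R5020 agonist for 16 hr at 37C, 5% CO2; run in the same wells as the beta-lactamase reporter read.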
# [6] = qHTS assay to identify small molecule antagonists of the TGF-beta/Smad signaling pathway - cell viability counter screen (AID 1346824; active = well fitted curve in the direction sought with a large enough effect in the repeat runs; inconclusive = weak or mixed curves; inactive = no such curve, though single readings can be large; an effect the other way counts as inactive or inconclusive; note: potency is the fitted concentration of half-maximal effect; nearly all actives have a fitted effect of over 50% in size); details: SBE-bla HEK293T viability, CellTiter-Glo luminescence; series mostly up to 76.8 µM
# In short: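 SBE-bla HEK 293T cells were plated overnight at 37 C, then given compounds in DMSO plus TGF-beta1 (added as 0.25 ng/mL solution) for 5 hr. After the bla read, CellTiter-Glo was added to the same wells and luminescence read after 30 min at room temperature.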
# [7] = qHTS assay to identify small molecule agonists of the TGF-beta/Smad signaling pathway - cell viability counter screen (AID 1346829; active = well fitted curve in the direction sought with a large enough effect in the repeat runs; inconclusive = weak or mixed curves; inactive = no such curve, though single readings can be large; an effect the other way counts as inactive or inconclusive; note: potency is the fitted concentration of half-maximal effect; nearly all actives have a fitted effect of over 45% in size); details: SBE-bla HEK293T viability, CellTiter-Glo luminescence, 5 h; series mostly up to 76.8 µM
# In short: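 Here the cytotoxicity of library compounds is measured in SBE-bla HEK 293T cells treated for 5 hr, using CellTiter-Glo added to wells already read for the beta-lactamase reporter.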
# [8] = target: Thyrotropin-releasing hormone receptor (Homo sapiens) (UniProt P34981); experiment: qHTS assay to identify small molecule antagonists of the thyrotropin-releasing hormone receptor (TRHR) signaling pathway (AID 1346877; active = well fitted inhibition curve with a large enough effect in the repeat runs, not every such curve was filed as active; inconclusive = weak or mixed curves; note: potency is the fitted concentration of half-maximal effect); details: TRHR-HEK293, TRH-induced calcium fluorescence, antagonist mode; series mostly up to 51.3 µM
# Sequence of UniProt P34981 (P34981 whole entry, looked up): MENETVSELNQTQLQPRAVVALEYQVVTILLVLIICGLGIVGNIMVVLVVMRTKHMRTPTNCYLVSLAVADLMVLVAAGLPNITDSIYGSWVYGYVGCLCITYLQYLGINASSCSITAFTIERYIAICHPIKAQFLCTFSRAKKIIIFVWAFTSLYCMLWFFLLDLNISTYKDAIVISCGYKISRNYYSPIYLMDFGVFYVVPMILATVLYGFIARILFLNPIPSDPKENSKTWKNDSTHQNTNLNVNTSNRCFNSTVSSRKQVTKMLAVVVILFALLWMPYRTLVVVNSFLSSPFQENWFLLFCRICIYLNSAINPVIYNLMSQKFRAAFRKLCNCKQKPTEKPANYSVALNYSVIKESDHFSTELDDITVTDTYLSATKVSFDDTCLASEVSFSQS
# In short: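 TRHR-expressing HEK293 cells were seeded, cultured 18 h at 37 °C, then loaded with calcium dye for 2 h. Compounds were pre-incubated 5 min at room temperature before 1 nM TRH (final) was added, and kinetic fluorescence was recorded for 3 min.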
# [9] = Human pregnane X receptor (PXR) small molecule agonists, qHTS cell viability counter screen (AID 1346977; active = well fitted curve in the direction sought with a large enough effect in the repeat runs; inconclusive = weak or mixed curves; inactive = no such curve, though single readings can be large; an effect the other way counts as inactive or inconclusive; note: potency is the fitted concentration of half-maximal effect; nearly all actives have a fitted effect of over 50% in size); details: PXR-Luc HepG2 viability, CellTiter-Fluor, 24 h; series mostly up to 92.4 µM
# In short: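 Fluorescence read-out (CellTiter-Fluor) of viability in PXR-Luc HepG2 cells, multiplexed with the luciferase agonist read. Compounds in DMSO added after 5hr plating; 24hr total exposure at 37C, 5% CO2.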
# [10] = qHTS assay to identify small molecule agonists of the TGF-beta/Smad signaling pathway (AID 1346859; active = well fitted activation curve with a large enough effect in the signal ratio in the repeat runs, not every such curve was filed as active; inconclusive = weak or mixed curves; the % refers to the signal ratio; note: % is set by controls: 0 for no effect and ±100 for the full control effect); details: SBE-bla HEK293T, TGF-beta/Smad beta-lactamase reporter, 5 h; activation: at 76.8 µM (top of the series)
# In short: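 Read-out: fluorescence at 460 and 530 nm (405 nm excitation) after a 2 hr room-temperature incubation with beta-lactamase FRET substrate. SBE-bla HEK 293T cells had been treated with test compounds for 5 hr at 37 C.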
# [11] = activity change, negative = inhibition: at 92.4 µM (top of the series) unless noted
# Tags give direction and shape of the fitted curve or compound fluorescence and quenching.
structure (smiles),measurement,setting,value
Clc1ccc2n[nH]nc2c1,activation,[1],inconclusive: -0.765%
same,"activity change, negative = inhibition",[2]; [11],inconclusive: -20.9%
same,Potency,[3],"inconclusive: 61.1 µM [cytotoxic, partial curve, poor fit]"
same,"activity, negative = inhibition",[4],inconclusive: 19.8%
Cc1c2ccccc2c(C)c2c1ccc1ccccc12,activation,[1],inconclusive: -10.4%
same,Potency,[5],active: 27 µM and active: 30.6 µM
same,Potency,[3],"inconclusive: 38.2 µM [cytotoxic, single point] and inconclusive: 10.9 µM [cytotoxic, partial curve, poor fit]"
same,Potency,[6],"inconclusive: 34.7 µM [cytotoxic, partial curve, poor fit]"
same,Potency,[7],"inconclusive: 61 µM [cytotoxic, partial curve, poor fit] and inconclusive: 54.9 µM [cytotoxic]"
CC(C)(C)c1ccc(O)c(C(C)(C)C)c1,Potency,[1],"inconclusive: 54.3 µM [falling, partial curve]"
same,Potency,[5],"inconclusive: 60.9 µM [cytotoxic, partial curve, poor fit] and inconclusive: 68.6 µM [cytotoxic]"
same,Potency,[3],"inconclusive: 68.3 µM [cytotoxic, single point] and inconclusive: 77 µM [cytotoxic, single point]"
same,Potency,[6],"inconclusive: 54.7 µM [cytotoxic, single point]"
same,Potency,[7],"inconclusive: 54.7 µM [cytotoxic, single point] and inconclusive: 38.9 µM [cytotoxic, partial curve]"
same,Potency,[8],"inconclusive: 30 µM [inhibitor, partial curve] and inconclusive: 26.9 µM [inhibitor, partial curve]"
same,"activity, negative = inhibition",[4],inconclusive: -22.3%
same,Potency,[9],"inconclusive: 70.8 µM [cytotoxic, single point]"
CCC1(c2cnc[nH]2)Cc2ccccc2C1,Potency,[1],"inconclusive: 26.6 µM [falling, partial curve, poor fit]"
same,Potency,[2]; [11],"inconclusive: 21.1 µM [falling, partial curve, poor fit]"
same,Potency,[3],inactive
CC1=NN(c2ccccc2)C(=O)C1,Potency,[1],inactive
same,Potency,[2]; [11],inactive
same,Potency,[3],"inconclusive: 54.8 µM [cytotoxic, partial curve, poor fit] and inconclusive: 2.98 µM [cytotoxic, full curve, poor fit]"
same,Potency,[6],"inconclusive: 62 µM [cytotoxic, partial curve, poor fit]"
same,Potency,[4],"inconclusive: 49.3 µM [rising, partial curve]"
same,Potency,[9],"inconclusive: 44.7 µM [cytotoxic, partial curve]"
CC(C)(C)c1ccc(O)c(O)c1,Potency,[1],"inconclusive: 43.3 µM [cytotoxic, partial curve]"
same,Potency,[2]; [11],active: 50.2 µM and active: 44.5 µM
same,Potency,[3],inconclusive: 28.2 µM and inconclusive: 27.3 µM
same,Potency,[6],"inconclusive: 34.7 µM [rising, partial curve, poor fit]"
same,Potency,[7],"inconclusive: 24.5 µM [rising, partial curve, poor fit]"
same,"activity, negative = inhibition",[4],inconclusive: 11.3% and inconclusive: 26.4%
same,Potency,[9],inconclusive: 68.6 µM [cytotoxic]
CCCCC(CC)COC(=O)/C=C/c1ccc(OC)cc1 (stereo not drawn),"activity change, negative = inhibition",[2]; at 42.5 µM (top of the series),inconclusive: -27.7%
same,"activity change, negative = inhibition",[2]; at 92.4 µM (top of the series),inconclusive: -29.6% and inconclusive: -20.3%
same,Potency,[5],"inconclusive: 68.6 µM [rising, single point]"
same,Potency,[3],"inconclusive: 12.1 µM [rising, partial curve, poor fit]"
same,Potency,[7],"inconclusive: 54.9 µM [cytotoxic, partial curve, poor fit]"
CCCCCCCCCCCCCCCCC(C(=O)O)C(O)(CC(=O)O)C(=O)O (stereo not drawn),Potency,[1],inactive
same,Potency,[3],inactive
same,Potency,[10],inactive
same,"activity, negative = inhibition",[4],inconclusive: 0.832% [at 35.3 µM]
CC(C)(c1cc(Br)c(O)c(Br)c1)c1cc(Br)c(O)c(Br)c1,Potency,[1],"inconclusive: 48.4 µM [cytotoxic, partial curve, poor fit] and inconclusive: 43.1 µM [cytotoxic, partial curve]"
same,Potency,[5],"inconclusive: 76.6 µM [cytotoxic, single point] and inconclusive: 68.4 µM [cytotoxic, single point] and inconclusive: 64.9 µM [cytotoxic, single point]"
same,Potency,[3],"inconclusive: 76.6 µM [cytotoxic, single point] and inconclusive: 76.7 µM [cytotoxic, single point] and inconclusive: 64.9 µM [cytotoxic, single point]"
same,Potency,[8],"inconclusive: 37.8 µM [inhibitor, single point] and active: 33.8 µM and inconclusive: 28.5 µM [inhibitor, partial curve]"
same,"activity, negative = inhibition",[4],inconclusive: -16.5%
same,Potency,[9],"inconclusive: 68.3 µM [cytotoxic, single point] and inconclusive: 70.8 µM [cytotoxic, single point]"
CC(=O)Nc1ccc(C(=O)CCl)cc1,"activity change, negative = inhibition",[2]; [11],inconclusive: 9.31%
same,"activity change, negative = inhibition",[2]; at 92.4 µM (top of the series),inactive: -0.0375%
same,Potency,[3],"inconclusive: 30.6 µM [rising, partial curve]"
same,Potency,[6],"inconclusive: 49 µM [rising, partial curve, poor fit]"
same,"activity, negative = inhibition",[4],inconclusive: 35.8%
